These results are taken from publication PMC7592119 (Science (New York, N.Y.), 2019).

The target of the assay is CDK4-CycD1 dimer (CDK4 T172E) of the activity assays (human, UniProt P11802 1-303; P24385, T172E). In words: reconstituted recombinant complexes used as enzymes.
Sequence of UniProt P11802 (P11802 whole entry T172E, chain 1 of 2): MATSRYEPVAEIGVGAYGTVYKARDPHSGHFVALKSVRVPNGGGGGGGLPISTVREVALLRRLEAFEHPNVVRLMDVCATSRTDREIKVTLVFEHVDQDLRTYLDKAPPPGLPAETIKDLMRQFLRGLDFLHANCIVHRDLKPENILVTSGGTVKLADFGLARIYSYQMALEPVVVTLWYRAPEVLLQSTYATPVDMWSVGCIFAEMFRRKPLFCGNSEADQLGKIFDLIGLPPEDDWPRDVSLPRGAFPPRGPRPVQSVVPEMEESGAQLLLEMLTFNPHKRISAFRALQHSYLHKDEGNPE
Sequence of UniProt P11802 (P24385 whole entry, chain 2 of 2, further chain): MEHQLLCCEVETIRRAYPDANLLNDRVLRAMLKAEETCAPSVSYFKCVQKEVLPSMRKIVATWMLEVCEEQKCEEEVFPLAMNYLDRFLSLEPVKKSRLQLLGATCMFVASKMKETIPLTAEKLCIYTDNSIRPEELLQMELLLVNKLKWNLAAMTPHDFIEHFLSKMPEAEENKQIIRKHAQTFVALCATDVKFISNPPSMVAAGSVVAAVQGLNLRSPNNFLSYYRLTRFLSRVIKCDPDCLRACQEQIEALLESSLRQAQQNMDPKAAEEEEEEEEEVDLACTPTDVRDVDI

B1: p27 kinase inhibitory domain ([…]) with a phosphomimetic at Y74 (domain or fragment)
chain: not shown
For the molecule B1, the binding result is recorded as “binds”.

B2: p27 kinase-inhibitory domain (p27^KID; […]) (domain or fragment)
chain: not shown
For B2, the binding result is on record as “binds”.
